{"source": "paper PMC4336329", "about": "(PLoS ONE, 2015)", "note": "In all, about 310,000 compounds went through this assay and about 14,000 (4.5%) showed an effect of 50% or more. Effects have a minus sign here. The list shows a part of the results.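 Further: peak tail current of the secondary pulse compared with the same well before compound.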"}
{"biological_target": "human ether-à-go-go-related gene (hERG) potassium channel (human, UniProt Q12809)", "sequence (Q12809 whole entry, looked up)": "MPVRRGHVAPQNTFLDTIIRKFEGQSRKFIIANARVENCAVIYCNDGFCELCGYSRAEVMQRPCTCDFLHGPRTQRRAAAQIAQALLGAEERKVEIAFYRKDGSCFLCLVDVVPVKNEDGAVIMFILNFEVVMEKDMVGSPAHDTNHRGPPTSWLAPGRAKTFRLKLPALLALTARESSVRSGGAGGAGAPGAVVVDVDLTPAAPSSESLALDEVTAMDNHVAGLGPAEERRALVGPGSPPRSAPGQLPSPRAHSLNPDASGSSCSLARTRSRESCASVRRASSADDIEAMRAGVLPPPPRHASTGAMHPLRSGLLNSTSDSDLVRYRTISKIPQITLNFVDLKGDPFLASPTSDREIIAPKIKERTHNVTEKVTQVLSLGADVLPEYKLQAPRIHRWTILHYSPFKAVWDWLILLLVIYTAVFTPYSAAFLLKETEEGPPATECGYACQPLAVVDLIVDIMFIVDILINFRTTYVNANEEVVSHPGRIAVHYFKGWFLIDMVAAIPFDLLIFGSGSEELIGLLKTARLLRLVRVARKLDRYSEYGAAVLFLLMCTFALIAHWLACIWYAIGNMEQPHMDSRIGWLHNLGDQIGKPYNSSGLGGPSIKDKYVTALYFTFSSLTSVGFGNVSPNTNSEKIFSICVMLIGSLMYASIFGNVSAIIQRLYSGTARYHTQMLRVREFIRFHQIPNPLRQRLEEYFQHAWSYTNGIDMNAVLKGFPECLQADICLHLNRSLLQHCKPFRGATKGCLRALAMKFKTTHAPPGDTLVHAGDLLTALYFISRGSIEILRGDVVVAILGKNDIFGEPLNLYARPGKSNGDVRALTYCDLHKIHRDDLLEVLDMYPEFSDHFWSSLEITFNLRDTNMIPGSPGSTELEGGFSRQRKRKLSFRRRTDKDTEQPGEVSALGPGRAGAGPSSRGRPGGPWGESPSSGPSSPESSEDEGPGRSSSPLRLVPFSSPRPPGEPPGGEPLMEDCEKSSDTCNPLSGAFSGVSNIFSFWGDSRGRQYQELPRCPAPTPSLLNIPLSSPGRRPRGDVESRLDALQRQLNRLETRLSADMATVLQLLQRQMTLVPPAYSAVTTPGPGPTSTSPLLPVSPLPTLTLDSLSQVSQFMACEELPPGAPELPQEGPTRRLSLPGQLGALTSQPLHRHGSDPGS", "test": "primary screen, population patch clamp on CHO cells stably expressing hERG", "units": {"hERG current change (%, negative = inhibition) at 10uM": "%"}}
{"compound": "O=C1[C@@H]2[C@H](C(=O)N1Cc1ccco1)[C@H]1C=C[C@@H]2C1", "hERG current change (%, negative = inhibition) at 10uM": -0.451}
{"compound": "O=C(NCc1csc2ccccc12)Nc1cc(Cl)cc(Cl)c1", "hERG current change (%, negative = inhibition) at 10uM": 13.6}
{"compound": "CCc1c(C)nc2c(-c3ccccc3OC)c(C)[nH]n2c1=O", "hERG current change (%, negative = inhibition) at 10uM": 11.2}
{"compound": "NC(=O)COC(=O)c1ccccc1OCc1ccccc1Cl", "hERG current change (%, negative = inhibition) at 10uM": -14.4}
{"compound": "CN1C/C(=N\\S(=O)(=O)c2ccccc2)N(C)C1=O", "hERG current change (%, negative = inhibition) at 10uM": 10.7}
{"compound": "CC(C)CN(/C=N/c1sc2c(c1C#N)CCCCC2)CC(C)C", "hERG current change (%, negative = inhibition) at 10uM": 17.3}
{"compound": "O=C(CCS(=O)(=O)c1ccc(Br)s1)NCc1ccccc1", "hERG current change (%, negative = inhibition) at 10uM": 15.3}
{"compound": "O=C(NCCCN1CCOCC1)NC12CC3CC(CC(C3)C1)C2", "hERG current change (%, negative = inhibition) at 10uM": 1.72}
{"compound": "CCOc1ccc(OCCC(=O)OCC(=O)NC2CCCCC2)cc1", "hERG current change (%, negative = inhibition) at 10uM": 11.4}
{"compound": "COc1ccc([C@@H]2CC=C(C(=O)O)[C@H](c3ccccc3F)N2S(=O)(=O)c2ccc(C)cc2)cc1OC", "hERG current change (%, negative = inhibition) at 10uM": 20.7}
{"compound": "O=C(NCCNC(=O)c1ccc(Br)o1)c1cccnc1", "hERG current change (%, negative = inhibition) at 10uM": 10.1}
{"compound": "COC(=O)c1nn(-c2ccccc2)c(Sc2ccc(Br)cc2)c1/C=N/O", "hERG current change (%, negative = inhibition) at 10uM": 6.5}
{"compound": "CC(C)N(Cc1nccn1C)C(=O)c1ccc(OC2CCN(C(=O)C3CC3)CC2)cc1", "hERG current change (%, negative = inhibition) at 10uM": 11.1}
{"compound": "COc1ccccc1OCCn1c(=O)n(C)c2ccccc21", "hERG current change (%, negative = inhibition) at 10uM": 0.54}
{"compound": "CN(CC(=O)Nc1c(Cl)cccc1Cl)C(=O)c1cc(S(=O)(=O)N(C)C)ccc1N1CCCC1", "hERG current change (%, negative = inhibition) at 10uM": -0.107}
{"compound": "CC1=CCC(Cc2nc3ccccc3o2)C1(C)C", "note": "(stereo not shown)", "hERG current change (%, negative = inhibition) at 10uM": 3.37}
{"compound": "O=C(NC1CC1)c1scc2c1OCCO2", "hERG current change (%, negative = inhibition) at 10uM": 10.8}
{"compound": "CN(C)CC(O)COc1ccc(C(C)(C)c2ccc(OCC(O)CN(C)C)cc2)cc1.Cl", "note": "(stereo not shown)", "hERG current change (%, negative = inhibition) at 10uM": 12.5}
{"compound": "CC1CC(c2ccccc2)n2nc(N3C(=O)c4ccccc4C3=O)nc2N1", "note": "(stereo not shown)", "hERG current change (%, negative = inhibition) at 10uM": 12.4}
{"compound": "CN(C)c1ccc(N=c2sc3ccccc3n2C)cc1", "hERG current change (%, negative = inhibition) at 10uM": -0.278}
{"compound": "Cc1ccc(NC(=O)CSc2ccc(-c3cccnc3)nn2)cc1", "hERG current change (%, negative = inhibition) at 10uM": -12.3}
{"compound": "O=C(CSc1nnnn1-c1ccccc1F)Nc1nc2ccccc2s1", "hERG current change (%, negative = inhibition) at 10uM": -10.9}
{"compound": "CCOn1c(=O)c(-c2ccc(OC)c(OC)c2)[n+]([O-])c2ccccc21", "hERG current change (%, negative = inhibition) at 10uM": 4.12}
{"compound": "CC(=O)c1ccc(Nc2c(C)n(C)n(-c3ccccc3)c2=O)cc1", "hERG current change (%, negative = inhibition) at 10uM": 23.3}
{"compound": "O=C(Cn1nc(Cc2cccnc2)c2ccccc2c1=O)NCC1COc2ccccc2O1", "note": "(stereo not shown)", "hERG current change (%, negative = inhibition) at 10uM": -57.4}
